Article PMC4710663
No constants are given. Whether binding was seen depends on the method and setting. For part of these data: In cells and extracts the contact can be indirect. Some results given as binding are weak or reduced against the parent protein; the word gives no strength. For part of these data: Sequences can lack the tags named with a protein. One block for each substance: values may come before it.

Assays:
[1] = biological target: T1, GST-ATOH8 fusion protein (human) (UniProt Q96SQ7); test: pull-down; GST fusion protein on glutathione beads as bait, incubated with lysate of Cos7 or HEK293T cells expressing the ECFP or EYFP fusion protein, 2-4 h at 4 °C; Western blot with EGFP antibody; only the target purified
T1 sequence: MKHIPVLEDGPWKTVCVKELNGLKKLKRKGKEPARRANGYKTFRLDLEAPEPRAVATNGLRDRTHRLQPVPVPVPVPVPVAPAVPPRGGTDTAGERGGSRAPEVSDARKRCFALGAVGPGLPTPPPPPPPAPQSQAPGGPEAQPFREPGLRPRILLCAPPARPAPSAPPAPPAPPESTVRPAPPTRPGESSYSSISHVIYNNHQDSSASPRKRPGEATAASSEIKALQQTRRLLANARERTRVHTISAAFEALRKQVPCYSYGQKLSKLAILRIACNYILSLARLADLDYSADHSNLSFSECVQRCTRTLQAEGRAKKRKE

[2] = biological target: T2, ATOH8 (yeast-2-hybrid screen) (human) (UniProt Q96SQ7); test: two-hybrid; yeast-2-hybrid screen, data not shown
T2 sequence: T1 sequence

[3] = biological target: T3, ATOH8-ECFP fusion protein (human) (UniProt Q96SQ7); test: co-IP; COS7 cells co-transfected; lysate (PBS, 1 % Triton, protease inhibitor, NaF, Na3VO4) on GFP-trap_A beads, 2 h at 4 °C; Western blot
T3 sequence: T1 sequence

binding [1]: no binding
Substance: EYFP-PPP3CA (from UniProt Q08209-1 1-521)

binding [2]: binds
Substance: PPP3CB (yeast-2-hybrid screen) (from UniProt P16298 1-524)

binding [3]: binds
Substance: constitutively active PPP3CB (P1-401), expressed in mammalian cells (from UniProt P16298-4 1-401) (domain or fragment)
